The source of these data is the supplement of paper PMC10037445.

For test [1], the system named is RAW-Dual. As to the kind of experiment: NF-kB SEAP reporter activity, fold change vs agonist alone; higher = enhanced NF-kB activity. The note with it: library stock concentration (final ~1000-fold dilution): 10 mM. The gist of the method:
(§1)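 Library stock was pin-tooled at 50 nL into 384-well plates of RAW-Dual macrophages (50,000 cells/well, DMEM), followed 1 h later by a PRR agonist, and the cells were kept at 37 °C, 5% CO2. Supernatant collected after 20 hours was read for IRF by QuantiLuc luminescence and for NF-κB by QuantiBlue absorbance at 620 nm. Reporter activity is fold change over agonist-alone wells, and a well counted as cytotoxic when its IncuCyte confluency was below 70% of agonist controls in both mask sets.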

Test [2] concerns RAW-Dual. Put plainly: NF-kB SEAP reporter activity, fold change vs agonist alone; cytotoxicity flag (confluency mask): cytotoxic (confluency <70% of control); higher = enhanced NF-kB activity. In outline: as §1
Test [3] has as its system RAW-Dual. Put plainly: NF-kB SEAP reporter activity, fold change vs agonist alone; cytotoxicity flag (confluency mask): not cytotoxic; higher = enhanced NF-kB activity. In outline: as §1
Where [4] appears, read: agonist: ODN 1826 (TLR9) 0.5 ug/mL.
The mark [5] stands for this setting: agonist: Pam2CSK4 (TLR2/6) 0.1 ug/mL.
The mark [6] stands for this setting: agonist: Pam3CSK4 (TLR2/1) 0.1 ug/mL.
Where [7] appears, read: cytotoxicity flag (confluency mask): not cytotoxic, agonist: Imiquimod (TLR7) […].
Setting [8] is: cytotoxicity flag (confluency mask): not cytotoxic, agonist: MPLA (TLR4) […].

The full ranking holds about 2,900 compounds; the median of “NF-kB SEAP reporter activity, fold change vs agonist alone” is about 0.99, and the highest 2% start at about 2.6. This is one part of the list.

`O=c1cc(N2CCOCC2)oc2c(-c3ccccc3)cccc12`: the “NF-kB SEAP reporter activity” value in test [1] (cytotoxicity flag (confluency mask): cytotoxic (confluency <70% of control), agonist: Imiquimod (TLR7) […]) came out at 1.07; in test [1] (cytotoxicity flag (confluency mask): cytotoxic (confluency <70% of control), agonist: MPLA (TLR4) […]), 1.63.
With `O=c1cc(N2CCOCC2)oc2c(-c3ccccc3)cccc12` (library stock concentration (final ~1000-fold dilution): 10 mM), the “NF-kB SEAP reporter activity” value in test [2] (agonist: LPS (TLR4) 0.1 ug/mL) amounted to 1.81; in test [2] (setting [4]) it was 1.34; in test [2] (setting [5]), 0.984; in test [2] (setting [6]), 1.19.
Take `C=CCOc1ccccc1OCC(O)CNC(C)C.Cl` (stereo not drawn): the “NF-kB SEAP reporter activity” value in test [1] (setting [7]) was found to be 1.36; in test [1] (setting [8]), 1.27.
With `C=CCOc1ccccc1OCC(O)CNC(C)C.Cl` (stereo not drawn) (library stock concentration (final ~1000-fold dilution): 10 mM), the “NF-kB SEAP reporter activity” value in test [3] (agonist: LPS (TLR4) 0.1 ug/mL) was 1.96; in test [3] (setting [4]), 1.11; in test [3] (setting [5]), 1.03; in test [3] (setting [6]), 1.33.
Take `CCOC(N)=O`: the “NF-kB SEAP reporter activity” value in test [1] (setting [7]) is 0.941; in test [1] (setting [8]) it was 0.993.
In the case of `CCOC(N)=O` (library stock concentration (final ~1000-fold dilution): 10 mM), the “NF-kB SEAP reporter activity” value turned out to be 1.31 in test [3] (agonist: LPS (TLR4) 0.1 ug/mL), 0.975 in test [3] (setting [4]), 1.21 in test [3] (setting [5]) and 1.16 in test [3] (setting [6]).
For the compound `CCc1c(N(CC)C2CCOCC2)cc2oc(C3CCN(C(C)C)CC3)cc2c1C(=O)NCc1c(C)cc(C)[nH]c1=O`, the “NF-kB SEAP reporter activity” value in test [1] (setting [7]) is 1.34; in test [1] (setting [8]), 1.04.
As to `CCc1c(N(CC)C2CCOCC2)cc2oc(C3CCN(C(C)C)CC3)cc2c1C(=O)NCc1c(C)cc(C)[nH]c1=O` (library stock concentration (final ~1000-fold dilution): 10 mM), the “NF-kB SEAP reporter activity” value in test [3] (agonist: LPS (TLR4) 0.1 ug/mL) amounted to 1.13; in test [3] (setting [4]), 0.983; in test [3] (setting [5]), 1.04; in test [3] (setting [6]), 0.941.
With `COc1cc2ncnc(Nc3ccc(F)c(Cl)c3)c2cc1O`, in test [1] (setting [8]), the “NF-kB SEAP reporter activity” value turned out to be 1.41.
`COc1cc2ncnc(Nc3ccc(F)c(Cl)c3)c2cc1O` (library stock concentration (final ~1000-fold dilution): 10 mM): the “NF-kB SEAP reporter activity” value in test [3] (agonist: LPS (TLR4) 0.1 ug/mL) is 1.64; in test [3] (setting [4]), 1.09; in test [3] (setting [5]) it was 1.01; in test [3] (setting [6]), 0.959.
For `Nc1cc(C(F)(F)F)c(-c2cc(N3CCOCC3)nc(N3CCOCC3)n2)cn1` (library stock concentration (final ~1000-fold dilution): 10 mM), in that order: 2.59, 2.07, 1.49 and 0.904.
Take `Nc1cc(C(F)(F)F)c(-c2cc(N3CCOCC3)nc(N3CCOCC3)n2)cn1`: the “NF-kB SEAP reporter activity” value is 1.71 in test [1] (setting [7]) and 1.63 in test [1] (setting [8]).
On to `CC(=O)N=c1sc(S(N)(=O)=O)nn1C` (library stock concentration (final ~1000-fold dilution): 10 mM), for which the “NF-kB SEAP reporter activity” value in test [3] (agonist: LPS (TLR4) 0.1 ug/mL) is 1.38; in test [3] (setting [4]), 0.959; in test [3] (setting [5]), 1.34; in test [3] (setting [6]) it was 1.09.
For the compound `CC(=O)N=c1sc(S(N)(=O)=O)nn1C`, the “NF-kB SEAP reporter activity” value in test [1] (setting [7]) was found to be 0.903; in test [1] (setting [8]), 1.01.
As to `COCCCOc1ccnc(CS(=O)c2nc3ccccc3[nH]2)c1C` (stereo not drawn) (library stock concentration (final ~1000-fold dilution): 10 mM), the “NF-kB SEAP reporter activity” value in test [3] (agonist: LPS (TLR4) 0.1 ug/mL) turned out to be 1.31; in test [3] (setting [4]), 1.11; in test [3] (setting [5]), 1.14; in test [3] (setting [6]) it was 0.792.
With `COCCCOc1ccnc(CS(=O)c2nc3ccccc3[nH]2)c1C` (stereo not drawn), the “NF-kB SEAP reporter activity” value in test [1] (setting [8]) is 0.959.
Turning to `Cc1ccc(Sc2cncc3sc(C(N)=O)cc23)cc1` (library stock concentration (final ~1000-fold dilution): 10 mM), the “NF-kB SEAP reporter activity” value came to 2.89 in test [3] (agonist: LPS (TLR4) 0.1 ug/mL) and 3.34 in test [3] (setting [6]).
On to `CC(C)NNC(=O)c1ccncc1` (library stock concentration (final ~1000-fold dilution): 10 mM), for which the “NF-kB SEAP reporter activity” value in test [3] (agonist: LPS (TLR4) 0.1 ug/mL) worked out at 0.63; in test [3] (setting [4]), 0.82; in test [3] (setting [5]) it was 0.805; in test [3] (setting [6]), 0.674.
Consider `CC(C)NNC(=O)c1ccncc1`, for which the “NF-kB SEAP reporter activity” value in test [1] (setting [8]) turned out to be 0.681.
